# From PubChem BioAssay AID2675 (National Center for Advancing Translational Sciences (NCATS), 2010)
# In all, about 280,000 compounds went through this assay and about 100 (0.036%) were called active. The shares of active, inactive and inconclusive entries below differ from those in the screen. Calls come from the whole dose curve; as a rule, active = well fitted inhibition curve with a large enough effect in the signal ratio, with a control signal flat (not every such curve was filed as active); inconclusive = small, poorly fitted or top-dose-only effect, or effect the other way, or a change in a side signal; inactive = no such curve, though single readings can be large or run the other way; the % refers to the signal ratio. Where the call is inconclusive, the potency comes from a doubtful curve fit. A note “side channel” means that the fit belongs to a control or component signal, not to the main read-out.
# Molecular target: Muscleblind-like protein 1 (Homo sapiens) (UniProt Q9NR56)
# Assay: qHTS Assay for Inhibitors of MBNL1-poly(CUG) RNA binding
# Conditions: TR-FRET MBNL1-His/biotin-(CUG)12 binding, 665/545 ratio; activity change, negative = inhibition: at 57.5 µM (top of the series)
# How it was run: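 Inhibition of protein-RNA binding appears as loss of TR-FRET between terbium anti-His antibody on MBNL1-His and streptavidin-XL665 on biotin-(CUG)12. Activity is normalized to buffer-only and uninhibited-complex controls.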
# % is set by controls: 0 for no effect and ±100 for the full control effect; potency is the fitted concentration of half-maximal effect; tags give direction and shape of the fitted curve or compound fluorescence and quenching.
# Chain of UniProt Q9NR56 (Q9NR56 whole entry, looked up): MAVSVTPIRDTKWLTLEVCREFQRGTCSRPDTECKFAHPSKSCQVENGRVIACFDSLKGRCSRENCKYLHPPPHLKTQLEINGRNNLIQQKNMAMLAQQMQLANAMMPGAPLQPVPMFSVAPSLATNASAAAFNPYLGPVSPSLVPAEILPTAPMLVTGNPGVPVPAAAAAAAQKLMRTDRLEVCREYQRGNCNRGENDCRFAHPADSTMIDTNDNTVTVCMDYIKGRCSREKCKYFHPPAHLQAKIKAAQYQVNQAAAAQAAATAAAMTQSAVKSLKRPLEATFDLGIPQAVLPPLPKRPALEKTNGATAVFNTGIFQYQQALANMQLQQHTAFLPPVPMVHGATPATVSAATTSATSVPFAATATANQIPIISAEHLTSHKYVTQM
Structure (SMILES),"activity change, negative = inhibition",Potency
N#CC1=C(SCC(=O)NC23CC4CC(CC(C4)C2)C3)NC(=O)C(C#N)C12CCCCC2 (centres undefined),inactive: 4.04%,–
O=C(c1ccccc1S(=O)(=O)NCC(O)COc1ccc([N+](=O)[O-])cc1)N1CCCCC1 (centres undefined),–,"inconclusive: 39.8 µM [quencher, side channel, single point]"
CC(C)(C)NC(=O)C(=O)NNC(=O)c1cccc(Br)c1,inactive: 3.14%,–
O=C(CCn1cnc2ccccc21)N/N=C/C=C/c1ccccc1,–,"inconclusive: 35.5 µM [quencher, side channel, single point]"
CCOCCCNC(=S)N(CCO)Cc1cc2cc3c(cc2[nH]c1=O)OCCO3,–,"inconclusive: 17.8 µM [quencher, side channel, partial curve]"
CN1/C(=C\C(=O)c2cccs2)Sc2ccccc21,–,"inconclusive: 25.1 µM [quencher, side channel, partial curve]"
COc1ccc(S(=O)(=O)Nc2cc(Sc3ncn[nH]3)c(O)c3ccccc23)cc1,–,"inconclusive: 17.8 µM [quencher, side channel, partial curve]"
Cc1ccc(C(=O)N/N=C/c2ccc(-c3ccccc3[N+](=O)[O-])o2)cn1,–,"inconclusive: 11.2 µM [quencher, side channel, partial curve]"
N#CC(C#N)=C1NC(N)=C(C#N)C(c2ccccc2)=C1C#N,–,"inconclusive: 31.6 µM [fluorescent, side channel, single point]"
CC(C)C1C(C#N)=C(N)Oc2n[nH]c(C(C)(C)C)c21 (centres undefined),inactive: 6.7%,–
O=C(Nc1ccc([N+](=O)[O-])cc1)Nc1ccc2[nH]c(=O)[nH]c2c1,–,"inconclusive: 14.1 µM [quencher, side channel, partial curve]"
O=S(=O)(c1cccc2nsnc12)N1CCN(c2ncccn2)CC1,–,"inconclusive: 10 µM [quencher, side channel, partial curve]"
C=CCNC(=S)NNC(=O)c1ccncc1,inactive: -4.66%,–
Cc1nc2cc(Cl)c([N+](=O)[O-])cc2s1,–,"inconclusive: 12.6 µM [quencher, side channel, partial curve]"
COc1cccc(-c2nc3ccccc3c(=O)o2)c1,inactive: -9.98%,–
Cc1cc(Cl)c(S(=O)(=O)N(C)C)cc1OCC(N)=O,–,"inconclusive: 79.4 µM [inhibitor, single point]"
C#CCNc1ccc([N+](=O)[O-])cc1,–,"inconclusive: 15.8 µM [quencher, single point]"
O=[N+]([O-])c1ccc(C(O)CN2CCN(c3ccccc3)CC2)cc1 (centres undefined),inactive: 25%,–
Cc1ccc(COC(=O)c2cc([N+](=O)[O-])ccc2N2CCOCC2)cc1,–,"inconclusive: 15.8 µM [quencher, side channel, partial curve]"
O=C(CCS(=O)(=O)c1cccc2nonc12)N1CC(=O)N(CCc2ccccc2)C(=O)C1,–,"inconclusive: 7.08 µM [quencher, side channel, partial curve]"
O=C(NNc1nc2cc3c(cc2s1)OCCO3)c1ccc(F)cc1,inactive: -2.78%,–
O=C1C2CCCCN2C(=O)N1CCCCN1CCN(c2ccc([N+](=O)[O-])cc2)CC1 (centres undefined),–,"inconclusive: 12.6 µM [quencher, side channel, partial curve]"

Structure (SMILES),"activity change, negative = inhibition",Potency
CNC(=O)c1ccc(-c2ccccc2)s1,–,"inconclusive: 28.2 µM [quencher, side channel, single point]"
CC(C(=O)N1CCN(c2ccc([N+](=O)[O-])cc2)CC1)N1C(=O)C2CC=CCC2C1=O (centres undefined),–,"inconclusive: 25.1 µM [quencher, side channel, partial curve]"
COC(=O)c1ccc(CNC(=O)COC(=O)CC23CC4CC(CC(Br)(C4)C2)C3)cc1,–,"inconclusive: 1.41 µM [fluorescent, side channel, full curve]"
Cc1ccc(S(=O)(=O)Nc2ccc(S(=O)(=O)Nc3nccs3)cc2)c([N+](=O)[O-])c1,–,"inconclusive: 31.6 µM [quencher, side channel, single point]"
CC1CC(C)CN(C(=O)c2nn(C)c3c2CS(=O)(=O)c2ccccc2-3)C1 (centres undefined),inactive: -7.85%,–
Cc1ccc(NC(=O)c2cc(N3C(=O)C=CC3=O)ccc2N2CCOCC2)cc1,inactive: -4.97%,–
CC(=O)OCCCNc1cc(SCc2ccco2)c2nonc2c1[N+](=O)[O-],–,"inconclusive: 6.31 µM [quencher, side channel, partial curve]"
Cc1cc(N2CCN(c3ccccc3)CC2)nc(N)n1,–,"inconclusive: 22.4 µM [quencher, side channel, single point]"
Cc1cc(-n2c(C)cc(C(=O)CSc3nc(N)cc(=O)[nH]3)c2C)no1,–,"inconclusive: 25.1 µM [fluorescent, side channel, single point]"
O=C(NCc1ccco1)c1cc([N+](=O)[O-])ccc1Cl,–,"inconclusive: 12.6 µM [quencher, partial curve]"
Cc1ccccc1NC(=S)c1ccc2ccccc2n1,inactive: 10.2%,–
COc1ccc(CNC(=O)c2noc(C)c2[N+](=O)[O-])cc1,–,"inconclusive: 25.1 µM [quencher, side channel, single point]"
COc1ccc(/C=N/NC(=O)c2[nH]c(C)c(C(=O)N/N=C/c3ccc(OC)cc3)c2C)cc1,–,"inconclusive: 2.82 µM [quencher, side channel, partial curve, poor fit]"
CCNC(=O)/C(C#N)=C/c1c(N2CCCCCC2)nc2c(C)cccn2c1=O,–,"inconclusive: 25.1 µM [quencher, single point]"
Cc1cc(C(=O)COC(=O)c2ccccc2O)c(C)n1Cc1cccs1,inactive: 4.15%,–
CCOc1ccc(CNC(=O)Cn2ccc3cc(S(=O)(=O)N4CCCCCC4)ccc32)cc1,inactive: 7.85%,–
CCC(CC)N1CCN(Cc2nc3ccc([N+](=O)[O-])cc3c(=O)n2-c2ccccc2F)CC1,–,"inconclusive: 3.98 µM [quencher, side channel, full curve]"
CN1C[C@@H]2C(c3ccc(C(F)(F)F)cc3)C3(c4ccc(C#N)cc4)CC2(C3)[C@H]1c1ccccc1 (some centres undefined),inactive: -0.743%,–
CCOc1ccc(-c2cc(C(=O)NCCCN3CCN(CC)CC3)c3ccccc3n2)cc1,–,"inconclusive: 14.1 µM [quencher, side channel, partial curve]"
CC(C)(Oc1ccc(Cl)cc1)C(=O)OCC(=O)NCCc1ccccc1,inactive: -5.75%,–
CSc1sc(C(=O)O)c2c1C(=O)CCC2,–,"inconclusive: 25.1 µM [quencher, side channel, single point]"
CC1=NN(c2ccccc2)C(=O)/C1=C\c1cc(C)n(C)c1C,–,"inconclusive: 2.82 µM [quencher, side channel, full curve]"

Structure (SMILES),"activity change, negative = inhibition",Potency
COc1ccccc1CCNC(=O)CSc1nnc2ccc(-c3cccnc3)nn12,–,"inconclusive: 17.8 µM [quencher, side channel, partial curve]"
COc1ccc(C2OC34CCCCC3C(C#N)(C#N)C2(C#N)C(=N)O4)cc1 (centres undefined),–,"inconclusive: 35.5 µM [quencher, side channel, single point]"
CCOC(=O)C1CCN(Cc2ccc3ccccc3c2)CC1,inactive: 0.463%,–
CN(C(=O)c1cnccn1)c1nnc(-c2cnccn2)s1,–,"inconclusive: 17.8 µM [quencher, side channel, single point]"
Cc1cnccc1CN(C)Cc1cn(C)nc1-c1cccc(Cl)c1,inactive: -16%,–
CC1Cc2ccccc2N1C(=O)CCS(=O)(=O)c1cccc2nonc12 (centres undefined),–,"inconclusive: 14.1 µM [quencher, partial curve]"
O=C(/C=C/c1ccc(Cl)cc1)N1CCN(c2c(Cl)cccc2[N+](=O)[O-])CC1,inactive: -1.48%,–
CC(C)N(C(=O)C[n+]1ccc(/C=N/O)cc1)C(C)C,–,"inconclusive: 10 µM [quencher, side channel, partial curve]"
Clc1ccc(CONc2ncnc3nonc23)c(Cl)c1,–,"inconclusive: 22.4 µM [quencher, side channel, single point]"
COC(=O)c1cnc(SCc2ccc([N+](=O)[O-])cc2)n1C,–,"inconclusive: 7.94 µM [quencher, side channel, partial curve]"
Cc1ccc([N+](=O)[O-])cc1NC(=O)CSc1n[nH]c(-c2cccnc2)n1,–,"inconclusive: 15.8 µM [quencher, side channel, partial curve]"
O=C(CCCc1ccccc1)Nc1ccccc1[N+](=O)[O-],–,"inconclusive: 15.8 µM [quencher, side channel, partial curve]"
CCCC(=O)Nc1cccc(-c2cn3cccnc3n2)c1,–,"inconclusive: 31.6 µM [quencher, side channel, single point]"
CCOC(=O)Nc1ccc(S(=O)(=O)Nc2cc(C)nc(C)n2)cc1,–,"inconclusive: 0.251 µM [quencher, side channel, full curve]"
Cc1c(C(=O)c2ccc(F)cc2F)c2ccccn2c1CCC#N,–,"inconclusive: 6.31 µM [quencher, side channel, full curve]"
Cc1ccc(Cn2nnc(C(=O)Nc3cccc(C)c3C)c2N)cc1,inactive: 0.468%,–
C=CCn1c(-c2csc3ccccc23)n[nH]c1=S,inactive: 0.841%,–
COC(C[C@H](O)C[C@@H](O)COCc1ccccc1)OC,inactive: -6.69%,–
S=c1[nH]nc(-c2cc(-c3ccco3)[nH]n2)n1-c1ccccc1Cl,inactive: 8.35%,–
CC(=O)Nc1nc(C)c(-c2csc(Nc3ccc(O)cc3)n2)s1,–,"inconclusive: 22.4 µM [quencher, side channel, single point]"
